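The compound was tested at five concentrations on cells cultured in 96-well plates, with a 48-hour exposure period. GI50 marks 50% less growth.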 Not every entry of the source has a single result; some have several. This is not the full list of results. The source may hold further records. The tests behind the records often covered other concentration ranges, not given here; some values may only mark the edge of a range.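 The concentration for full growth arrest is given as TGI.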

Results on 3 molecules are retold here after PubChem BioAssay (NCI).

Some test systems named below: NCI-H226 lung; MDA-MB-231 breast; T-47D breast; OVCAR-4 ovarian; LOX IMVI melanoma; HT29 colon; HCC-2998 colon; HS 578T breast; SW-620 colon; SF-295 CNS; UO-31 renal; HCT-116 colon; BT-549 breast; HL-60(TB) leukemia; SK-MEL-5 melanoma; MDA-MB-435; EKVX NSCLC; SF-539 CNS; HCT-15 colon; UACC-62 melanoma; K-562 leukemia; OVCAR-5 ovarian; OVCAR-3 ovarian; SNB-19 CNS; IGROV1 ovarian; MCF7 breast; NCI/ADR-RES ovarian.

What all share (assay): growth of human tumour cells (NCI), 48 h

For the molecule `NC1CCC(Nc2nc(NCc3ccc(-c4ccco4)nc3)c3ncn(C4CCCC4)c3n2)CC1` (centres undefined), the TGI was 685 nM and 11.8 µM in the assay on NCI-H226 lung; 578 nM and 10.8 µM in the assay with MDA-MB-231 breast; 80.7 nM and 1.28 µM in the assay with T-47D breast; 441 nM and 10.3 µM with OVCAR-4 ovarian; 53.5 nM and 11.1 µM in the assay on HT29 colon. In addition, in the assay with LOX IMVI melanoma, the GI50 is 27.5 nM and 7.93 µM.
Turning to `COC(=O)[C@@H](C)C[C@H](Cc1ccc(F)cc1)NC(=O)c1csc([C@@H](C[C@H](C(C)C)N(C)C(=O)[C@@H](NC(=O)[C@H]2CCCCN2C)C(C)C)OC(C)=O)n1`, the GI50 with HCC-2998 colon was 5.19 nM and 62.3 nM; with NCI-H226 lung it was 3.5 nM and 119 nM; with SW-620 colon, 0.533 nM and 7.08 nM; in the assay on OVCAR-4 ovarian it was 13.7 nM and 184 nM; with SF-295 CNS, 1.09 nM and 16.2 nM; with UO-31 renal, 7.02 nM and 186 nM. Moreover, the GI50 in the assay on HCT-116 colon is 0.469 nM and 5.94 nM; with BT-549 breast, 0.76 nM and 12.1 nM; in the assay on HL-60(TB) leukemia it was 0.367 nM and 3.77 nM; with SK-MEL-5 melanoma, 0.404 nM and 6.51 nM; with MDA-MB-435, 0.102 nM and 1.67 nM; in the assay with EKVX NSCLC, 4.49 nM and 46.9 nM. The GI50 in the assay on HCT-15 colon was 3.21 nM and 33.7 nM; with UACC-62 melanoma, 0.648 nM and 7.92 nM; in the assay with K-562 leukemia, 0.444 nM and 4.96 nM; with OVCAR-5 ovarian, 4.45 nM and 69.3 nM; with OVCAR-3 ovarian, 0.31 nM and 4.2 nM; in the assay on SNB-19 CNS, 0.585 nM and 9.16 nM. In addition, the GI50 in the assay with HT29 colon is 0.406 nM and 5.46 nM; with IGROV1 ovarian, 1.26 nM and 15.2 nM; in the assay with MCF7 breast it was 0.3 nM and 5.61 nM; in the assay on NCI/ADR-RES ovarian it was 23.6 nM and 313 nM. Moreover, the TGI in the assay with HS 578T breast was 509 nM and > 16.7 µM; with NCI-H226 lung it was 91.2 nM and > 16.7 µM; in the assay on MDA-MB-231 breast, 48 nM and 4.36 µM; in the assay with SK-MEL-5 melanoma, 15.1 nM and 200 nM; with SF-539 CNS it was 6.94 nM and 96 nM.
As to `C=C1C(=O)[C@@]23CC[C@H]4[C@@](C)(CCC[C@@]4(C)C(=O)OC)[C@@H]2CC[C@]1(O)C3`, the TGI with K-562 leukemia is 2.05 µM and > 100 µM.
